Consider four molecules from publication PMC8948191.

The chains behind the UniProt entries cited, without tags or fusion partners.
UniProt Q9VQE0: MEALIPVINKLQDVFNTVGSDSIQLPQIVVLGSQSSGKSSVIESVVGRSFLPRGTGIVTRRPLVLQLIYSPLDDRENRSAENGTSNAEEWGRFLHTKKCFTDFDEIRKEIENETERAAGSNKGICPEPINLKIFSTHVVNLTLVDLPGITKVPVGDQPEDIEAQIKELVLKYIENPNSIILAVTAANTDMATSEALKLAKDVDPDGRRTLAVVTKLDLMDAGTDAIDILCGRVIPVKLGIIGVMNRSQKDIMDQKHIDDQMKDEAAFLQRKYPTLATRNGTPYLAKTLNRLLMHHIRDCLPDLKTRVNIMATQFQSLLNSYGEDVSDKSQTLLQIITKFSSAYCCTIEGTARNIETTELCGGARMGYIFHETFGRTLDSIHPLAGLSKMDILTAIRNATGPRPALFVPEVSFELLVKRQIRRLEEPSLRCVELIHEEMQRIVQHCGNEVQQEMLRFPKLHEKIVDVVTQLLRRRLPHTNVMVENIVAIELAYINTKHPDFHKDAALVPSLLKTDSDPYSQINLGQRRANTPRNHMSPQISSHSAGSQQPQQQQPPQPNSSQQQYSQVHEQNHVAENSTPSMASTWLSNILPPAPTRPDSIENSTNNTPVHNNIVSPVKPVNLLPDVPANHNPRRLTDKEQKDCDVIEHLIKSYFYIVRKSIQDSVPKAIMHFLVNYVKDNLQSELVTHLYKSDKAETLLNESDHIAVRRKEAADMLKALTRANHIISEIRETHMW

The target of test [1] is T1, FLAG-CLUH (human) (UniProt O75153).
T1 sequence: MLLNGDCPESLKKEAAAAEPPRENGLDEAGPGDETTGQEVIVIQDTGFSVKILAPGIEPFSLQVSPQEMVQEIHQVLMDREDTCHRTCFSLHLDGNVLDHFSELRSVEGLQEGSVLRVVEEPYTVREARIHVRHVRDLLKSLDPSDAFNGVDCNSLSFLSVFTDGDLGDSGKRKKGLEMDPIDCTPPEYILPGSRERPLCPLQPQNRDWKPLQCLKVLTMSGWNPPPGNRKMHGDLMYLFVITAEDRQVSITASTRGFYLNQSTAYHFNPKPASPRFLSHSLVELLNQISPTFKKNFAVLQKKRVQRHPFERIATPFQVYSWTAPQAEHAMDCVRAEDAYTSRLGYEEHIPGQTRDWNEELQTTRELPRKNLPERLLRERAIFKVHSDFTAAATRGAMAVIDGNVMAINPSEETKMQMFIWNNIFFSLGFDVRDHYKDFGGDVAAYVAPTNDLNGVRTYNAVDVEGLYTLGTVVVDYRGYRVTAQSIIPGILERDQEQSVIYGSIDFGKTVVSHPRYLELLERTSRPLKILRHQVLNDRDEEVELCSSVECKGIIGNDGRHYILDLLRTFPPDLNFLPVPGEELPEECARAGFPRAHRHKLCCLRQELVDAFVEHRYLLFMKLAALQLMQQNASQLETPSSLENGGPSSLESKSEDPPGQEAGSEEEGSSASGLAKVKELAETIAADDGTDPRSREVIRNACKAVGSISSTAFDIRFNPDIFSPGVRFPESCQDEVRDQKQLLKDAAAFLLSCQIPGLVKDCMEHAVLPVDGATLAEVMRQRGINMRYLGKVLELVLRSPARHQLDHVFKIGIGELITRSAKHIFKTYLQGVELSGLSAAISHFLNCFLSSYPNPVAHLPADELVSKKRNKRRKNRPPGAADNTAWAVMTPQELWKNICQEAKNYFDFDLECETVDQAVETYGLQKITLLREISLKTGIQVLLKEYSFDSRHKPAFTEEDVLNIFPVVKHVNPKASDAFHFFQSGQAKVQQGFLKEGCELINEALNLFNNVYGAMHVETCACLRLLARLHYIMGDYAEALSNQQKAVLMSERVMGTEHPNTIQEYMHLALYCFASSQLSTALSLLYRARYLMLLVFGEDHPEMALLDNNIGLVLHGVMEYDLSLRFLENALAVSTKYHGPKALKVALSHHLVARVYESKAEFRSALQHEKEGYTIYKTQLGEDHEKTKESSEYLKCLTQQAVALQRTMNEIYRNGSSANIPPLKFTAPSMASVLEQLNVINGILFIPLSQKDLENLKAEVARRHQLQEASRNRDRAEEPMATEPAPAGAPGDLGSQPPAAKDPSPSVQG
The test is described as follows: co-IP; lysates (RIPA buffer) of HeLa cells transfected with the indicated constructs; IP with mouse anti-FLAG antibody, Dynabeads Protein G; western blot.

Test [2] addresses Myc-tagged Drp1 (Drosophila) (Drosophila) (UniProt Q9VQE0). Briefly: co-IP; lysates (RIPA buffer) of Drosophila S2 cells transfected with tagged constructs; IP with mouse anti-FLAG or mouse anti-Myc antibody, Dynabeads Protein G; western blot.
Test [3] addresses T2, FLAG-tagged Clu (Drosophila Clueless) (Drosophila) (UniProt A1ZAB5).
T2 sequence: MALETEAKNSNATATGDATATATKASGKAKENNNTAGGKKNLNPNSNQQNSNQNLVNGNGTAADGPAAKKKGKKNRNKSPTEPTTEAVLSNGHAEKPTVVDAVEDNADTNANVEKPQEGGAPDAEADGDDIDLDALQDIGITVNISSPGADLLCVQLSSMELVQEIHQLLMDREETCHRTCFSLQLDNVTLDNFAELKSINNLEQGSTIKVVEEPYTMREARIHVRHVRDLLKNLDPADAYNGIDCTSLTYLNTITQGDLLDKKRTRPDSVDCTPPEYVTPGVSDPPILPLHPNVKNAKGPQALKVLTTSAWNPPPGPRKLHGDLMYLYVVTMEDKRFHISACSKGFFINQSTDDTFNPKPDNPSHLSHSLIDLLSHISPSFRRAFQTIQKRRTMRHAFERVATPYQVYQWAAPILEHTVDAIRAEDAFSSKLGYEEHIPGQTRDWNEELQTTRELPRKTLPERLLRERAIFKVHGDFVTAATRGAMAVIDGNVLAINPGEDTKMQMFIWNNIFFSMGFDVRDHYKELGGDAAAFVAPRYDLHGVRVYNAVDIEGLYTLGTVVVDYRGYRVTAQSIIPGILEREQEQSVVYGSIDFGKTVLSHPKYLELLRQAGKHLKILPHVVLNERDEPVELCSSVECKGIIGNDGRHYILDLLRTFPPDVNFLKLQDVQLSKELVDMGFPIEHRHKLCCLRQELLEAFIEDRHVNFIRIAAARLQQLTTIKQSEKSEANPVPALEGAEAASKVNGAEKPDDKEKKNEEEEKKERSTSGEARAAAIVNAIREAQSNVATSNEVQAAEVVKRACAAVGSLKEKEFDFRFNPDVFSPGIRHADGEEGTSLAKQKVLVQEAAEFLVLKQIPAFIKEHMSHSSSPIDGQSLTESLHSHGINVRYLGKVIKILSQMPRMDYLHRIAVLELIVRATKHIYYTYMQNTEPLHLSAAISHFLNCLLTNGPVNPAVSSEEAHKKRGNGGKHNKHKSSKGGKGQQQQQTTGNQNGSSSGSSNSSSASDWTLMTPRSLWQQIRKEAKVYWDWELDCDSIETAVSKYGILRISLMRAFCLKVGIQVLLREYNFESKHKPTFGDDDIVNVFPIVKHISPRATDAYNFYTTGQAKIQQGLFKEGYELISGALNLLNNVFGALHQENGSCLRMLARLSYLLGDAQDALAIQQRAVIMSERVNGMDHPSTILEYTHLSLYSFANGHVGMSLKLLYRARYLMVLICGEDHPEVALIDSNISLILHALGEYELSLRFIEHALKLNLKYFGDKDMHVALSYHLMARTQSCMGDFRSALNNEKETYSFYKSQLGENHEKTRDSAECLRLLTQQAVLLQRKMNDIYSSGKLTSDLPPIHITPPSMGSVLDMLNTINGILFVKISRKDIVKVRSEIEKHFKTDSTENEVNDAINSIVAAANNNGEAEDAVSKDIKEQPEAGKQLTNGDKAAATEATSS
The test is described as above.

No constants are given. Whether binding was seen depends on the method and setting. In cells and extracts the contact can be indirect. Some results given as binding are weak or reduced against the parent protein; the word gives no strength. Where a sequence is shown, tags or fusion partners need not be part of it.

B1: GFP-Mff (protein, UniProt Q9GZY8 1-342)
chain: MSKGTSSDTSLGRVSRAAFPSPTAAEMAEISRIQYEMEYTEGISQRMRVPEKLKVAPPNADLEQGFQEGVPNASVIMQVPERIVVAGNNEDVSFSRPADLDLIQSTPFKPLALKTPPRVLTLSERPLDFLDLERPPTTPQNEEIRAVGRLKRERSMSENAVRQNGQLVRNDSLWHRSDSAPRNKISRFQAPISAPEYTVTPSPQQARVCPPHMLPEDGANLSSARGILSLIQSSTRRAYQQILDVLDENRRPVLRGGSAAATSNPHHDNVRYGISNIDTTIEGTSDDLTVVDAASLRRQIIKLNRRLQLLEEENKERAKREMVMYSITVAFWLLNSWLWFRR
Take B1: the binding result in test [1] is “binds”.

B2: MiD49-Myc (protein, UniProt Q96C03 1-454)
chain: MAEFSQKRGKRRSDEGLGSMVDFLLANARLVLGVGGAAVLGIATLAVKRFIDRATSPRDEDDTKADSWKELSLLKATPHLQPRPPPAALSQPVLPLAPSSSAPEGPAETDPEVTPQLSSPAPLCLTLQERLLAFERDRVTIPAAQVALAKQLAGDIALELQAYFRSKFPELPFGAFVPGGPLYDGLQAGAADHVRLLVPLVLEPGLWSLVPGVDTVARDPRCWAVRRTQLEFCPRGSSPWDRFLVGGYLSSRVLLELLRKALAASVNWPAIGSLLGCLIRPSMASEELLLEVQHERLELTVAVLVAVPGVDADDRLLLAWPLEGLAGNLWLQDLYPVEAARLRALDDHDAGTRRRLLLLLCAVCRGCSALGQLGRGHLTQVVLRLGEDNVDWTEEALGERFLQALELLIGSLEQASLPCHFNPSVNLFSSLREEEIDDIGYALYSGLQEPEGLL
B2: in test [1], the binding result is on record as “binds”.

B3: FLAG-tagged Clu (Drosophila Clueless) (protein, UniProt A1ZAB5 1-1448)
chain: MALETEAKNSNATATGDATATATKASGKAKENNNTAGGKKNLNPNSNQQNSNQNLVNGNGTAADGPAAKKKGKKNRNKSPTEPTTEAVLSNGHAEKPTVVDAVEDNADTNANVEKPQEGGAPDAEADGDDIDLDALQDIGITVNISSPGADLLCVQLSSMELVQEIHQLLMDREETCHRTCFSLQLDNVTLDNFAELKSINNLEQGSTIKVVEEPYTMREARIHVRHVRDLLKNLDPADAYNGIDCTSLTYLNTITQGDLLDKKRTRPDSVDCTPPEYVTPGVSDPPILPLHPNVKNAKGPQALKVLTTSAWNPPPGPRKLHGDLMYLYVVTMEDKRFHISACSKGFFINQSTDDTFNPKPDNPSHLSHSLIDLLSHISPSFRRAFQTIQKRRTMRHAFERVATPYQVYQWAAPILEHTVDAIRAEDAFSSKLGYEEHIPGQTRDWNEELQTTRELPRKTLPERLLRERAIFKVHGDFVTAATRGAMAVIDGNVLAINPGEDTKMQMFIWNNIFFSMGFDVRDHYKELGGDAAAFVAPRYDLHGVRVYNAVDIEGLYTLGTVVVDYRGYRVTAQSIIPGILEREQEQSVVYGSIDFGKTVLSHPKYLELLRQAGKHLKILPHVVLNERDEPVELCSSVECKGIIGNDGRHYILDLLRTFPPDVNFLKLQDVQLSKELVDMGFPIEHRHKLCCLRQELLEAFIEDRHVNFIRIAAARLQQLTTIKQSEKSEANPVPALEGAEAASKVNGAEKPDDKEKKNEEEEKKERSTSGEARAAAIVNAIREAQSNVATSNEVQAAEVVKRACAAVGSLKEKEFDFRFNPDVFSPGIRHADGEEGTSLAKQKVLVQEAAEFLVLKQIPAFIKEHMSHSSSPIDGQSLTESLHSHGINVRYLGKVIKILSQMPRMDYLHRIAVLELIVRATKHIYYTYMQNTEPLHLSAAISHFLNCLLTNGPVNPAVSSEEAHKKRGNGGKHNKHKSSKGGKGQQQQQTTGNQNGSSSGSSNSSSASDWTLMTPRSLWQQIRKEAKVYWDWELDCDSIETAVSKYGILRISLMRAFCLKVGIQVLLREYNFESKHKPTFGDDDIVNVFPIVKHISPRATDAYNFYTTGQAKIQQGLFKEGYELISGALNLLNNVFGALHQENGSCLRMLARLSYLLGDAQDALAIQQRAVIMSERVNGMDHPSTILEYTHLSLYSFANGHVGMSLKLLYRARYLMVLICGEDHPEVALIDSNISLILHALGEYELSLRFIEHALKLNLKYFGDKDMHVALSYHLMARTQSCMGDFRSALNNEKETYSFYKSQLGENHEKTRDSAECLRLLTQQAVLLQRKMNDIYSSGKLTSDLPPIHITPPSMGSVLDMLNTINGILFVKISRKDIVKVRSEIEKHFKTDSTENEVNDAINSIVAAANNNGEAEDAVSKDIKEQPEAGKQLTNGDKAAATEATSS
Consider B3, for which the binding result in test [2] is given as “binds”.

B4: PINK1 (positive control in S2 cells) (protein, UniProt Q0KHV6 6-721)
chain: LTVRLIKHGRYILRSYCKRDIHANILDQNQLKTRSKRGFPLPSTAANVLRTTPQQAAKSVVNVVPRTINSPSGSPFNGSGSSPTSSSGIFRVGQHARKLFIDNILSRVTTTYSEDLRQRATRKLFFGDSAPFFALIGVSLASGSGVLSKEDELEGVCWEIREAASRLQNAWNHDEISDTLDSKFTIDDLEIGPPIAKGCAAVVYAADFKKDVASDGASLHTDAQPQATPAFAPNSWSTHEMMSPLQNMSRFVHNFGGSVDNVFHYSQPSAASDFVGAQSREQDQRHHEQQQHQNQEQEQHQNQEPSSSAFNVTSPANSNINSSVDSYPLALKMMFNYDIQSNALSILRAMYKETVPARQRGMNEAADEWERLLQNQTVHLPRHPNIVCMFGFFCDEVRNFPDGHLLYPVAQPQRINPQGYGRNMSLYLLMKRYDHSLRGLLDSQDLSTRNRILLLAQMLEAVNHLSRHGVAHRDLKSDNVLIELQDDAAPVLVLSDFGCCLADKVHGLRLPYVSHDVDKGGNAALMAPEIFNTMPGPFAVLNYGKADLWACGALAYEIFGNRNPFYSSSGGMARERGEMTLSLRNSDYRQDQLPPMSDACPPLLQQLVYNILNPNPSKRVSPDIAANVVQLFLWAPSNWLKAGGMPNSPEILQWLLSLTTKIMCEGRPQMGAGLMPVASCGNRRAYVEYLLICSFLARARLRRIRGALNWIQNVVA
Regarding B4, in test [3], the binding result is “binds”.
